SMILES strings stand for the structures. The campaign covered roughly 3,200 compounds. About 110 (3.4%) showed an effect of 50% or more. Some of the results follow.

The test system of this assay is T1, V. cholerae SAD30.
T1 construct: SAD30
Also on record: species or system S. aureus MSSA476 (TSB) or V. cholerae SAD30 (LB); 384-well bacterial growth screen at 25 uM, OD600 relative to DMSO control. As to conditions: relative growth, OD600, LB; 25 µM; inhibitor.
For `C=CC(=O)NCc1cn(C2CCCC2)nc1C` [3-N21, N-[(1-cyclopentyl-3-methyl-1H-pyrazol-4-yl)methyl]prop-2-enamide], the “% of control remaining” value is given as 97.2064%. As for `COCCn1c(C)cc(C(=O)CCl)c1C` [10-D13, 2-chloro-1-[1-(2-methoxyethyl)-2,5-dimethyl-1H-pyrrol-3-yl]ethan-1-one], the “% of control remaining” value is recorded as 99.9026%. In the case of `C=CC(=O)NCCC(=O)N1CC[S+]([O-])C(C)(C)CC1` (stereo not drawn) [3-O17, N-[3-(7,7-dimethyl-1-oxo-1lambda4,4-thiazepan-4-yl)-3-oxopropyl]prop-2-enamide], the “% of control remaining” value came out at 105.675%. Regarding `COc1ccc(-c2n[nH]cc2C=C(C#N)C(=O)Nc2ccccc2)cc1` [8-A14, 2-cyano-3-[3-(4-methoxyphenyl)-1H-pyrazol-4-yl]-N-phenylprop-2-enamide], the “% of control remaining” value is 87.8994%. Turning to `CC(Cl)C(=O)N1CC(=O)Nc2ccccc21` (stereo not drawn) [6-E07, 4-(2-chloropropanoyl)-1,2,3,4-tetrahydroquinoxalin-2-one], the “% of control remaining” value is 89.7905%. As for `N#CC(=Cc1ccco1)C(=O)NCCc1ccc(F)cc1F` [9-B11, 2-cyano-N-[2-(2,4-difluorophenyl)ethyl]-3-(furan-2-yl)prop-2-enamide], the figure is 78.518%; as for `O=C(CCl)NCCc1cccc2ccccc12` [6-E14, 2-chloro-N-[2-(naphthalen-1-yl)ethyl]acetamide], 105.261%; as for `COCC(NC(=O)C(C)Cl)c1ccccn1` (stereo not drawn) [6-B13, 2-chloro-N-[2-methoxy-1-(pyridin-2-yl)ethyl]propanamide], 94.9474%.

For the compound `Cc1ccc(C=C(C#N)C(=O)NC2CC2)s1` [9-K15, 2-cyano-N-cyclopropyl-3-(5-methylthiophen-2-yl)prop-2-enamide], the “% of control remaining” value is given as 81.9171%. As for `C=CC(=O)NC1COCC1C` (stereo not drawn) [1-D06, N-(4-methyloxolan-3-yl)prop-2-enamide], the figure is 104.024%; as for `CCc1oc2ccccc2c1C=C(C#N)C(=O)NC1CC1` [9-M12, 2-cyano-N-cyclopropyl-3-(2-ethyl-1-benzofuran-3-yl)prop-2-enamide], 80.8294%; as for `C=CC(=O)NCc1cc(Cl)c2c(c1)OCCO2` [1-L05, N-[(8-chloro-2,3-dihydro-1,4-benzodioxin-6-yl)methyl]prop-2-enamide], 81.3154%. With `Cc1noc(C)c1C(C)CNC(=O)C(C)Cl` (stereo not drawn) [6-P19, 2-chloro-N-[2-(3,5-dimethyl-1,2-oxazol-4-yl)propyl]propanamide], the “% of control remaining” value was 101.924%. With `C=CC(=O)NCc1nc2ccccc2c(=O)n1C` [3-J10, N-[(3-methyl-4-oxo-3,4-dihydroquinazolin-2-yl)methyl]prop-2-enamide], the “% of control remaining” value is given as 92.7954%. On to `CSC1=C(C#N)C2(CCCCC2)C(C#N)=C(NC(=O)CCl)N1` [4-E10, 2-chloro-N-[1,5-dicyano-4-(methylsulfanyl)-3-azaspiro[5.5]undeca-1,4-dien-2-yl]acetamide], for which the “% of control remaining” value was 83.3297%. Turning to `N#Cc1ccc(N2C(=O)C=CC2=O)cc1` [10-B09, 4-(2,5-dioxo-2,5-dihydro-1H-pyrrol-1-yl)benzonitrile], the “% of control remaining” value was 24.9367%. `Cc1ccc(S(=O)(=O)NC2CN(C(=O)CCl)C2)cc1` [5-E07, N-[1-(2-chloroacetyl)azetidin-3-yl]-4-methylbenzene-1-sulfonamide]: the “% of control remaining” value is 95.6604%. Regarding `CC(NC(=O)C(C#N)=Cc1cnn(C)c1)c1ccccc1` (stereo not drawn) [8-N10, 2-cyano-3-(1-methyl-1H-pyrazol-4-yl)-N-(1-phenylethyl)prop-2-enamide], the “% of control remaining” value was found to be 64.7859%. Regarding `C=CC(=O)N1Cc2cnn(C)c2C1` [3-P14, 1-{1-methyl-1H,4H,5H,6H-pyrrolo[3,4-c]pyrazol-5-yl}prop-2-en-1-one], the “% of control remaining” value is reported as 102.852%.

In the case of `C=CC(=O)N(C)CC1(O)CCc2ccccc21` (stereo not drawn) [3-D11, N-[(1-hydroxy-2,3-dihydro-1H-inden-1-yl)methyl]-N-methylprop-2-enamide], the “% of control remaining” value was determined as 94.5598%. On to `Cc1cc(CC(C)NC(=O)C(C)Cl)n(-c2ccccc2)n1` (stereo not drawn) [7-H21, 2-chloro-N-[1-(3-methyl-1-phenyl-1H-pyrazol-5-yl)propan-2-yl]propanamide], for which the “% of control remaining” value was 83.2645%. In the case of `C=CC(=O)N1CCC(C(=O)N2CCCN(c3nccs3)CC2)CC1` [2-L20, 1-{4-[4-(1,3-thiazol-2-yl)-1,4-diazepane-1-carbonyl]piperidin-1-yl}prop-2-en-1-one], the “% of control remaining” value is recorded as 91.7398%. On to `CC(C)(CNC(=O)CCl)CC1CCOCC1` [6-C04, 2-chloro-N-[2,2-dimethyl-3-(oxan-4-yl)propyl]acetamide], for which the “% of control remaining” value turned out to be 100.863%. Consider `C=CC(=O)N1CCC(C(=O)N[C@@H](C)c2ccc(Cl)s2)CC1` [3-E22, N-[(1S)-1-(5-chlorothiophen-2-yl)ethyl]-1-(prop-2-enoyl)piperidine-4-carboxamide], for which the “% of control remaining” value is recorded as 101.088%. Consider `CNS(=O)(=O)c1cc(NC(=O)CCl)ccc1C` [6-M07, 2-chloro-N-[4-methyl-3-(methylsulfamoyl)phenyl]acetamide], for which the “% of control remaining” value is listed as 98.7392%.

As to `C=CC(=O)NCc1ccc(C(=O)N2CCOCC2)cc1` [1-L17, N-{[4-(morpholine-4-carbonyl)phenyl]methyl}prop-2-enamide], the “% of control remaining” value is given as 88.4903%. Regarding `C=CC(=O)N1CCOCC1c1noc(C)n1` (stereo not drawn) [3-O11, 1-[3-(5-methyl-1,2,4-oxadiazol-3-yl)morpholin-4-yl]prop-2-en-1-one], the “% of control remaining” value is 103.029%.

`C=CC(=O)N(C)CC(=O)N1CCC(C)(c2nc(C)no2)CC1` [2-B22, N-methyl-N-{2-[4-methyl-4-(3-methyl-1,2,4-oxadiazol-5-yl)piperidin-1-yl]-2-oxoethyl}prop-2-enamide]: the “% of control remaining” value is recorded as 107.025%. With `C=CC(=O)Nc1cnc(S(C)(=O)=O)c(C)c1` [2-O14, N-(6-methanesulfonyl-5-methylpyridin-3-yl)prop-2-enamide], the “% of control remaining” value was found to be 93.5926%. Consider `COc1ccc2cc(C=C(C#N)C(=O)Nc3nccs3)ccc2c1` [9-E08, 2-cyano-3-(6-methoxynaphthalen-2-yl)-N-(1,3-thiazol-2-yl)prop-2-enamide], for which the “% of control remaining” value came out at 74.983%. In the case of `CN(C)c1nc(N2CCOCC2)ncc1NC(=O)CCl` [5-M22, 2-chloro-N-[4-(dimethylamino)-2-(morpholin-4-yl)pyrimidin-5-yl]acetamide], the “% of control remaining” value stood at 105.916%. Turning to `C=CC(=O)NCC1CCC2(CCCC2)O1` (stereo not drawn) [1-A06, N-({1-oxaspiro[4.4]nonan-2-yl}methyl)prop-2-enamide], the “% of control remaining” value is on record as 91.9283%.

Consider `C=CC(=O)NCc1ncccc1-n1cccn1` [2-N19, N-{[3-(1H-pyrazol-1-yl)pyridin-2-yl]methyl}prop-2-enamide], for which the “% of control remaining” value came to 92.8206%. Under `C=CC(=O)N(CCO)c1ccc(C(=O)O)cc1` [1-M10, 4-[N-(2-hydroxyethyl)prop-2-enamido]benzoic acid] stands 88.6398%.

Consider `CC(Cl)C(=O)N1CCN(C(C)C)c2ccccc2C1` (stereo not drawn) [7-O07, 2-chloro-1-[1-(propan-2-yl)-2,3,4,5-tetrahydro-1H-1,4-benzodiazepin-4-yl]propan-1-one], for which the “% of control remaining” value came out at 66.4794%. On to `C=CC(=O)N1CCCC(NS(=O)(=O)c2cccc(F)c2)C1` (stereo not drawn) [3-G15, 3-fluoro-N-[1-(prop-2-enoyl)piperidin-3-yl]benzene-1-sulfonamide], for which the “% of control remaining” value stood at 78.504%. For the compound `CC(Cl)C(=O)Nc1ccc([N+](=O)[O-])cc1C(F)(F)F` (stereo not drawn) [6-D06, 2-chloro-N-[4-nitro-2-(trifluoromethyl)phenyl]propanamide], the “% of control remaining” value is 84.1786%.

Take `CC(Cl)C(=O)N1CCCc2c1ccnc2N(C)C` (stereo not drawn) [6-D14, 2-chloro-1-[5-(dimethylamino)-1,2,3,4-tetrahydro-1,6-naphthyridin-1-yl]propan-1-one]: the “% of control remaining” value was 87.5154%. As for `C=CC(=O)N1CCC(Cc2noc(C)n2)CC1` [2-G22, 1-{4-[(5-methyl-1,2,4-oxadiazol-3-yl)methyl]piperidin-1-yl}prop-2-en-1-one], the figure is 114.127%; as for `CCc1nsc(N2CCN(C(=O)C(C#N)=Cc3ccco3)CC2)n1` [9-K05, 2-[4-(3-ethyl-1,2,4-thiadiazol-5-yl)piperazine-1-carbonyl]-3-(furan-2-yl)prop-2-enenitrile], 91.9782%; as for `C=CC(=O)NC(=O)NCc1ccccc1` [1-I04, 1-benzyl-3-(prop-2-enoyl)urea], 96.861%. Regarding `Cc1cc(C(C)(C)C)cc(C)c1CCNC(=O)CCl` [4-A16, N-[2-(4-tert-butyl-2,6-dimethylphenyl)ethyl]-2-chloroacetamide], the “% of control remaining” value came out at 101.79%. Take `Cc1cc(C)c(NC(=O)C(C#N)=Cc2cccnc2)c(C)c1` [8-B17, 2-cyano-3-(pyridin-3-yl)-N-(2,4,6-trimethylphenyl)prop-2-enamide]: the “% of control remaining” value was 75.119%. With `COc1cc(C)c(C=C(C#N)C(=O)Nc2ccc(C)cc2)cc1C(C)C` [9-C04, 2-cyano-3-[4-methoxy-2-methyl-5-(propan-2-yl)phenyl]-N-(4-methylphenyl)prop-2-enamide], the “% of control remaining” value came to 94.6975%. As to `CCOc1cc(C=C(C#N)C(=O)N2CCCC2)cc(Cl)c1O` [8-M06, 3-(3-chloro-5-ethoxy-4-hydroxyphenyl)-2-(pyrrolidine-1-carbonyl)prop-2-enenitrile], the “% of control remaining” value is given as 72.8076%.

For the origin of these results see paper PMC11995724, “Antibiotic target discovery by integrated phenotypic and activity-based profiling of electrophilic fragments” (Cell chemical biology, 2025).
